From article PMC5775257 come the findings set out here.

Common to all, as to experiment: co-IP; anti-GFP (polyclonal, Protein G Dynabeads) immunoprecipitation from lysates of transfected HEK293T cells, 4 h at 4 °C, with or without RNase; immunoblot
On the technique in general: A western blot detects proteins with antibodies after separation by electrophoresis.

The target in one test is T1, GFP-Roquin-1 (aa 1–509) (UniProt Q4VGL6).
T1 sequence: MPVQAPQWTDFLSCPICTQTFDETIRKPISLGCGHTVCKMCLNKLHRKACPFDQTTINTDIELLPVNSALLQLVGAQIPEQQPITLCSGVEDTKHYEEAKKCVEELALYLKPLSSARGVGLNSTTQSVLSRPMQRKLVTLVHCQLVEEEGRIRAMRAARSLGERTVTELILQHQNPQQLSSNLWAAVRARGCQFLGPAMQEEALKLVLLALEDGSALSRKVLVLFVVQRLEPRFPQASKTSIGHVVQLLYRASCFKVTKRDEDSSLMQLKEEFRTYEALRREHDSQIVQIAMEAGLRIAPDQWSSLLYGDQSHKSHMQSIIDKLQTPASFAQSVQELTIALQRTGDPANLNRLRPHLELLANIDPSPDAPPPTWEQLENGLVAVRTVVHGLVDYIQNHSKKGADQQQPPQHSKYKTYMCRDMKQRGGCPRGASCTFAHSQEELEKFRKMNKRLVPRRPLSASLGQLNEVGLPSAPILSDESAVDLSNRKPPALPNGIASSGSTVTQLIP

In test [1] the target is T2, GFP-Roquin-1 (aa 509–1130) (UniProt Q4VGL6).
T2 sequence: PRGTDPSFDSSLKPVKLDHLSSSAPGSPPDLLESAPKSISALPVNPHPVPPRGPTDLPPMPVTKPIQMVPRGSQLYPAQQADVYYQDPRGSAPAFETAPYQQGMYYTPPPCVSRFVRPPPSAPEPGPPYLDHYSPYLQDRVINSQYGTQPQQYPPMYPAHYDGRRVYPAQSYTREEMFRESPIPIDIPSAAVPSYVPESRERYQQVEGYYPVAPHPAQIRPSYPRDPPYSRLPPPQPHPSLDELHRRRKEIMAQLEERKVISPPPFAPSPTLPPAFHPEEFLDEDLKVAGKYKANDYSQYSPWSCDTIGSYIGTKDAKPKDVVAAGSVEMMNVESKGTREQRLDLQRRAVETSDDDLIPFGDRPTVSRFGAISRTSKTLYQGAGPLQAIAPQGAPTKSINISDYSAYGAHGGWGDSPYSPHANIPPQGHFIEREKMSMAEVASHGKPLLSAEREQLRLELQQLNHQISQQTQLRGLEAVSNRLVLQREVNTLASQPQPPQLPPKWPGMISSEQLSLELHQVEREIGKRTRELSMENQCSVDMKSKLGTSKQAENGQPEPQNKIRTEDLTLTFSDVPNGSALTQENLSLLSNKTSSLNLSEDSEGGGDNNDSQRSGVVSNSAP

In the next test the target is T3, GFP-Roquin-1 full-length (UniProt Q4VGL6).
T3 sequence: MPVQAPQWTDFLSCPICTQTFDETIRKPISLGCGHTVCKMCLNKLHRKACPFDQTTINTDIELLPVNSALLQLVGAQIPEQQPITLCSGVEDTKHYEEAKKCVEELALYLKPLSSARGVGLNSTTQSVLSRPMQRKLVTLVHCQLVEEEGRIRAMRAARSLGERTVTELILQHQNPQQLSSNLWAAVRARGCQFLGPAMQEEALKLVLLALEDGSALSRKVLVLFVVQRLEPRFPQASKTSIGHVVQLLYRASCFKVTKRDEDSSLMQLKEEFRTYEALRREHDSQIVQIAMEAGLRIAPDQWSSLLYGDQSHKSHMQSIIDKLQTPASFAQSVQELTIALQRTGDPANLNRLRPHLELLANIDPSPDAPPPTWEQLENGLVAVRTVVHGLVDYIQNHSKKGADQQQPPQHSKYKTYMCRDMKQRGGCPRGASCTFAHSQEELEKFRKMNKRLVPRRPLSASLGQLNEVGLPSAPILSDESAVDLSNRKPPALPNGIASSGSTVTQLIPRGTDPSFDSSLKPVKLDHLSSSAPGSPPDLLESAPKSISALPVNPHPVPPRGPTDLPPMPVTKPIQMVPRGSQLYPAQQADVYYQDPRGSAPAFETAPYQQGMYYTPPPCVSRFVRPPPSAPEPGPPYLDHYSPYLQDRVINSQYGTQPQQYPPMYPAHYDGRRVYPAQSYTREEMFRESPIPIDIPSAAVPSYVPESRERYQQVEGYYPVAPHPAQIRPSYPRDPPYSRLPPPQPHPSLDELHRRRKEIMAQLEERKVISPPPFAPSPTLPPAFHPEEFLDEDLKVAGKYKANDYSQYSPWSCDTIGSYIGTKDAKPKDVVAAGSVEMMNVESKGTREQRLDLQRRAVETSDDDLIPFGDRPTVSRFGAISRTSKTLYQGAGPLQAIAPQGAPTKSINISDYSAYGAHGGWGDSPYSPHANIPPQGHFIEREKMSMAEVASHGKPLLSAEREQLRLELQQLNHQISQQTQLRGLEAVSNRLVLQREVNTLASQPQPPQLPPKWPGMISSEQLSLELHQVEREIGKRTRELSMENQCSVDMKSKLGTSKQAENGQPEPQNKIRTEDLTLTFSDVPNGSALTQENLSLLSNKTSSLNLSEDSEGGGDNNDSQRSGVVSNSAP

These are yes or no findings as the source states them, for the method shown. In cells and extracts the contact can be indirect. Some binding calls cover weakened binding; strength is not graded here. Tags and fused reporters may be left off the sequences shown.

B1: NUFIP2 (overexpressed) (protein, UniProt Q7Z417 1-695)
chain: MEEKPGQPQPQHHHSHHHPHHHPQQQQQQPHHHHHYYFYNHSHNHHHHHHHQQPHQYLQHGAEGSPKAQPKPLKHEQKHTLQQHQETPKKKTGYGELNGNAGEREISLKNLSSDEATNPISRVLNGNQQVVDTSLKQTVKANTFGKAGIKTKNFIQKNSMDKKNGKSYENKSGENQSVDKSDTIPIPNGVVTNNSGYITNGYMGKGADNDGSGSESGYTTPKKRKARRNSAKGCENLNIVQDKIMQQETSVPTLKQGLETFKPDYSEQKGNRVDGSKPIWKYETGPGGTSRGKPAVGDMLRKSSDSKPGVSSKKFDDRPKGKHASAVASKEDSWTLFKPPPVFPVDNSSAKIVPKISYASKVKENLNKTIQNSSVSPTSSSSSSSSTGETQTQSSSRLSQVPMSALKSVTSANFSNGPVLAGTDGNVYPPGGQPLLTTAANTLTPISSGTDSVLQDMSLTSAAVEQIKTSLFIYPSNMQTMLLSTAQVDLPSQTDQQNLGDIFQNQWGLSFINEPSAGPETVTGKSSEHKVMEVTFQGEYPATLVSQGAEIIPSGTEHPVFPKAYELEKRTSPQVLGSILKSGTTSESGALSLEPSHIGDLQKADTSSQGALVFLSKDYEIESQNPLASPTNTLLGSAKEQRYQRGLERNDSWGSFDLRAAIVYHTKEMESIWNLQKQDPKRIITYNEAMDSPDQ
For B1, the binding entry in the test with GFP-Roquin-1 (aa 1–509) is on record as “binds”; in test [1] it was “no binding”; with GFP-Roquin-1 full-length it was “binds”.
